Results: PubChem BioAssay AID1745853 (National Center for Advancing Translational Sciences (NCATS), 2022)
The other results are listed elsewhere or left out. Further columns of the screen follow, without active or inactive calls.

Key:
Assay in all cases: Primary Screen for Target Class Profiling of Small Molecule Inhibitors of Methyltransferases
[1] = molecular target: Glycine N-methyltransferase (Homo sapiens) (UniProt Q14749); conditions: purified enzyme, MTase-Glo SAH luminescence; measured here: GNMT inhibition; at 40 µM; stronger effect = lower value
Method in brief: (§1)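 Each enzyme was reacted with SAM and its substrate, with compounds tested once at 40 uM; SAH formed was read by MTase-Glo luminescence.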

[2] = molecular target: Guanidinoacetate N-methyltransferase (Homo sapiens) (UniProt Q14353); conditions: purified enzyme, MTase-Glo SAH luminescence; measured here: GAMT inhibition; at 40 µM; stronger effect = lower value
Method in brief: as §1

[3] = molecular target: Histamine N-methyltransferase (Homo sapiens) (UniProt P50135); conditions: purified enzyme, MTase-Glo SAH luminescence; measured here: HNMT inhibition; at 40 µM; stronger effect = lower value
Method in brief: as §1

[4] = molecular target: Nicotinamide N-methyltransferase (Homo sapiens) (UniProt P40261); conditions: purified enzyme, MTase-Glo SAH luminescence; measured here: NNMT inhibition; at 40 µM; stronger effect = lower value
Method in brief: as §1

[5] = molecular target: Phenylethanolamine N-methyltransferase (Homo sapiens) (UniProt P11086); conditions: purified enzyme, MTase-Glo SAH luminescence; measured here: PNMT inhibition; at 40 µM; stronger effect = lower value
Method in brief: as §1
On the % scale 0 is the no-effect control and ±100 the full control effect.

Row | Compound | activity change, negative = inhibition [1] | activity change, negative = inhibition [2] | activity change, negative = inhibition [3] | activity change, negative = inhibition [4] | activity change, negative = inhibition [5]
1 | CC(C)CCNC(=O)N1CC[C@@H]2COC(=O)N(Cc3ccccc3)[C@@H]2C1 | -5.02% | -13.4% | -5.22% | -24.3% | -11.7%
2 | CCc1cc2c(cc3n2CC(C)(C(=O)NC2CCC(C)CC2)N(c2cccc(OC)c2)C3=O)s1 (stereo not given) | 0.52% | 0% | 4.21% | -9.35% | 0.727%
3 | CC(C(=O)NCc1cccc(F)c1)n1ccc2cc(S(=O)(=O)N3CCCC3)ccc21 (stereo not given) | 0.578% | 0% | 1.86% | -4.31% | -2.43%
4 | CCN1C(=O)Cc2cc(C(=O)NCCC(C)C)ccc21 | 0.845% | 1.37% | 2.95% | -1.24% | 10.4%
5 | CC1(C(=O)NC2CCCCC2)Cc2ccccc2C(=O)N1C1CCCCCC1 (stereo not given) | -3.51% | 4.74% | 4.62% | 9.51% | -1.84%
6 | COc1cccc(C(=O)Cn2nc3n(C(C)C)c(=O)c4ccc(C(=O)NC5CCCCC5)cc4n3c2=O)c1 | -0.2% | 1.8% | 5% | -4.64% | -0.943%
7 | COc1c(O)cc2c(c1O)C(=O)O[C@H](C)[C@H]2O | 0% | 0.735% | -2.94% | -9.99% | 4.21%
8 | CC1CCC(N2C(=O)c3cc4occc4n3CC2(C)C(=O)NC2CCCCC2)CC1 (stereo not given) | 2.41% | 0.033% | 2.96% | 7.1% | 0.028%
9 | COc1ccccc1CNC(=O)CCc1nnc2n(Cc3ccc(C)cc3)c(=O)c3ccccc3n12 | -5.8% | 0.593% | 9.69% | 10.7% | 2.79%
10 | CCC(C(=O)NCCC(C)C)n1ccc2cc(S(=O)(=O)N3CCCCC3)ccc21 (stereo not given) | 2.73% | 0.485% | 4.13% | 2.1% | 0.967%
11 | CC(=O)Nc1ccc(-c2nnc3n(Cc4ccccc4Cl)c(=O)c4ccccc4n23)cc1 | -24.1% | 1.01% | 1.49% | 0.831% | -1.33%
12 | Cc1oc2c(c1C(=O)N1CCOCC1)CN(C(=O)c1ccncc1)CC2 | -4.05% | -6.28% | -3.44% | -4.55% | -3.95%
13 | Cc1nc(N2CCC(NC(=O)COc3ccccc3)CC2)cc(C(F)(F)F)n1 | -1.98% | 0.337% | -1.03% | 0.858% | 0.943%
14 | CC(N)(C(=O)O)c1ccc(C(=O)O)cc1 (stereo not given) | 4.46% | 13.8% | 8.68% | -2.04% | 6.74%
15 | CCOC(=O)CNC(=O)C1(C)Cn2c(ccc2-c2ccco2)C(=O)N1c1ccc(OC)c(OC)c1 (stereo not given) | -6.97% | 0% | 10.6% | 15.1% | 2.29%
16 | CNC(=O)c1cc(C2CC2)nc2onc(C3CCCN3C(C)=O)c12 (stereo not given) | -2.06% | -0.627% | 1.02% | -2.73% | -0.095%
17 | COc1ccc(-c2cc3n(n2)CC(C)(C(=O)NCc2ccccc2OC)N(c2ccc(C)cc2)C3=O)cc1 (stereo not given) | 4.58% | 3.33% | 6.93% | 8.87% | 0.166%
18 | Cc1cccc(NC(=O)Cn2nc3n(CC(C)C)c(=O)c4ccc(C(=O)NC5CCCC5)cc4n3c2=O)c1 | 5.65% | 2.76% | 12.1% | 6.68% | 8.43%
19 | CN1CCc2cccc3c2C1Cc1ccc(O)c(O)c1-3 (stereo not given) | -88% | -3.31% | -14.5% | -13.9% | -4.46%
20 | COc1cccc(C(=O)N2CCC(Oc3ccccc3-c3nc(C4CCOCC4)no3)C2)c1 (stereo not given) | -6.5% | -2.97% | -3.19% | -12.8% | -0.376%

Row | Compound | activity change, negative = inhibition [1] | activity change, negative = inhibition [2] | activity change, negative = inhibition [3] | activity change, negative = inhibition [4] | activity change, negative = inhibition [5]
21 | CC#CCOC(=O)c1c(C)nc2sc3c(c2c1N)CCC(O)C3 (stereo not given) | -14.7% | 1.08% | -1.63% | -10.3% | 1.39%
22 | Cc1ccccc1CNC(=O)C1(C)Cc2ccccc2C(=O)N1C1CCCCC1 (stereo not given) | 12.2% | 3.84% | 12.1% | 0.828% | 8.59%
23 | CC(=O)OCCC(C)CCC1C(C)(O)CCC2C(C)(C)CCCC21C (stereo not given) | 0% | 7.81% | 4.32% | -13.3% | 4.02%
24 | CCOC(=O)c1cc2n(n1)CC(C)(C(=O)NCc1ccc(F)cc1)N(Cc1cccc(OC)c1OC)C2=O (stereo not given) | 0.946% | 3.17% | 0.406% | 5.09% | 1.41%
25 | CN1c2cc(C(N)=O)ccc2C(=O)N2CCCC21 (stereo not given) | -3.45% | 0.85% | 0.135% | -0.758% | 11.5%
26 | O=C(CCc1nnn2c1CN(C(=O)NCCc1ccccc1)CC2)NC1CC1 | -0.2% | 0.832% | -4.28% | 0.49% | -0.809%
27 | Oc1ccc2c(-c3c(-c4ccccn4)nn4c3CCC4)ccnc2c1 | -2.72% | -2.56% | -18.6% | -27.9% | -10.6%
28 | CC(C)OCCCNC(=O)c1ccc2c(=O)[nH]c3c(C(=O)NC4CCCC4)sc(=S)n3c2c1 | -18.5% | 3.57% | -4.47% | -28.2% | -15.3%
29 | CC[C@H]1OC(=O)[C@H](C)[C@@H](O[C@H]2C[C@@](C)(OC)[C@@H](O)[C@H](C)O2)[C@H](C)[C@@H](O[C@@H]2O[C@H](C)C[C@H](N(C)C)[C@H]2O)[C@](C)(O)C[C@@H](C)/C(=N/OCOCCOC)[C@H](C)[C@@H](O)[C@]1(C)O | 7.07% | – | 8.77% | – | –
30 | C[C@@H]1CN(C(=O)c2cnc3sccn3c2=O)C[C@@]1(O)C1CCC1 | -5.57% | -3.79% | -1.06% | -3.06% | -2.52%
31 | COc1ccc2cc3n(c2c1)CC(C)(C(=O)NC1CCCCCC1)N(CCCN1CC(C)CC(C)C1)C3=O (stereo not given) | 4.33% | -0.293% | 6.59% | 9.9% | -2.96%
32 | CN1CCCCCCN(C(=O)Cn2c(=O)oc3ccccc32)[C@H]2CCC[C@H]2C1=O | -5.82% | -3.6% | -0.412% | -2.94% | -0.187%
33 | NC(=O)c1sc(-c2ccsc2)cc1N | – | 2.33% | – | -13.3% | -6.4%
34 | CCCn1c(=O)c2cc(F)ccc2n2c(SCc3ccccc3Cl)nnc12 | -21% | 4.1% | -1.43% | -9.88% | 1.72%
35 | CCNC(=O)c1noc(-c2cc(Cl)c(O)cc2O)c1-c1ccc(OC)cc1 | 0.105% | 1.5% | 4.35% | -16.7% | -3.52%
36 | Nc1nc2c(c(N3CCNCC3)n1)CCC1=C2[C@@H]2CCCC[C@@H]2O1 | -4.09% | 5.55% | -4.39% | -22.6% | 1.36%
37 | CCCCCCCCCCC(C)(C)C(=O)Nc1c(OC)cc(OC)cc1OC | -18.3% | 7.63% | -4.45% | -8.26% | 6.13%
38 | CCN(CC)CCCN1C(=O)c2cc3occc3n2CC1(C)C(=O)NC1CCCCCCC1 (stereo not given) | 2.58% | 0% | 1.76% | 6.26% | -0.251%
39 | Cc1ccc(CNC(=O)CSc2nnc3n(CCC(C)C)c(=O)c4ccccc4n23)cc1 | 3.54% | 0% | 10.9% | 0.055% | 3.24%
40 | N#CN1CCC[C@@H](n2nc(-c3ccc(Oc4ccc(F)cc4F)cc3)c(C(N)=O)c2N)C1 | -7.61% | 6.48% | 6.26% | -15.5% | 1.68%

Row | Compound | activity change, negative = inhibition [1] | activity change, negative = inhibition [2] | activity change, negative = inhibition [3] | activity change, negative = inhibition [4] | activity change, negative = inhibition [5]
41 | CC1(C(=O)NC2CCCC2)Cn2c(ccc2-c2ccco2)C(=O)N1Cc1ccco1 (stereo not given) | -16.1% | 3.4% | -2.37% | -3.01% | -2.61%
42 | CCC[C@H]1CN(Cc2c(C)noc2C)C[C@@H]1NC(=O)C1CCOCC1 | -1.56% | -0.924% | 1.25% | -5.73% | 0.266%
43 | CC(O)C(=O)/C=C/C=C/C(=O)OC1C=C2COC(=O)C2(O)C2(C)CCCC(C)(C)C12 (stereo not given) | 2.23% | 4.88% | 5.45% | -6.61% | 4.85%
44 | COC(=O)CNC(=O)c1nc(-c2ccccc2OC)c2cnccn12 | -8.99% | -4.85% | -11.5% | -11.7% | -1.64%
45 | COc1ccc(-c2cc3n(n2)CC(C)(C(=O)NC2CCCCC2)N(Cc2ccc(F)cc2)C3=O)cc1 (stereo not given) | -1.24% | 1.95% | -0.683% | -4.08% | -8.98%
46 | CC(C)CNC(=O)c1ccc2c(=O)n(C(C)C)c3nn(CC(=O)c4ccccc4)c(=O)n3c2c1 | 5.64% | 1.02% | 11% | 3.5% | 6.16%
47 | CN=C(N)NCCC[C@H](N)C(=O)O | 2.52% | 13.4% | 2.92% | -2.77% | 4.82%
48 | CC(C)NC(=O)c1ccc2c(=O)n(Cc3ccccc3)c3nnc(SCC(=O)NC4CCCC4)n3c2c1 | 3.53% | 4.39% | 7.87% | -0.328% | 2.46%
49 | CC1(C(=O)NC2CCCC2)Cn2c(nc3ccccc32)C(=O)N1Cc1ccc2c(c1)OCO2 (stereo not given) | -0.218% | 1.63% | -4.34% | 2.11% | -3.3%
50 | COc1ccc(C2=NOC(C(=O)N3CCN(c4ccc(F)cc4)CC3)C2)cc1 (stereo not given) | -5% | 0% | 0.348% | -0.725% | -4.91%
51 | Cc1ccc(CN2CCC3(CC2)CC(c2ccccc2)C(=O)N3C)cc1F (stereo not given) | -7.14% | -15.2% | -5.5% | -23.9% | -9.17%
52 | CCOC(=O)c1cc2n(n1)CC(C)(C(=O)NC1CCCCC1)N(c1ccc(Cl)cc1C)C2=O (stereo not given) | 0.59% | 4.82% | 0.836% | -0.717% | -2.29%
53 | CC(C)(O)c1ccn2c(-c3ccc(F)c(-c4ccc(F)cc4C#N)c3)cnc2c1F | -2.26% | 10.1% | 0.422% | -42.2% | -3.12%
54 | CC(C)(OC1OC(CO)C(O)C(O)C1O)C1CCC(O)(CO)C2CC(O)C(C)(O)C2C1 (stereo not given) | 1.89% | 6.08% | 10.6% | -6.67% | 5.65%
55 | COC(=O)C1=COC(O[C@@H]2O[C@H](CO)[C@@H](O)[C@H](O)[C@H]2O)/C(=C\COC(=O)c2ccc(OC3OC(CO)C(O)C(O)C3O)c(OC)c2)C1CC(=O)OCCc1ccc(O)cc1 (stereo not given in full) | 1.57% | 5.9% | 10.1% | -4.6% | 3.5%
56 | CCCCN1C(=O)c2cc(C(=O)NCCc3ccc(OCC)cc3)nn2CC1(C)C(=O)NC1CCCC1 (stereo not given) | 2.61% | 1.73% | -17.4% | 1.99% | 0.194%
57 | CC(=O)N1CCc2cc(Br)c(S(=O)(=O)NCCN3CCN(c4ccccc4F)CC3)cc21 | -8.82% | -0.956% | -12% | -13.1% | -9.86%
58 | CCn1c(=O)n(CC)c2cc(S(=O)(=O)NCc3ccccc3Cl)ccc21 | 2.23% | 1.23% | 1.5% | -10.2% | -0.251%
59 | Cc1nc(C(=O)N2CC(F)(F)C[C@H]2c2nnc(C3CC3)o2)co1 | 0.656% | -0.98% | 1.54% | 3.22% | 0.354%
60 | CCCn1c(=O)c2ccc(Cl)cc2n2c(=O)n(Cc3ccccc3)nc12 | 6.21% | 0.084% | 12.6% | 6.34% | 5.81%
